# The whole screen tested about 280,000 compounds, of which about 100 (0.036%) were called active. This list was built around the results that the source calls inconclusive (neither active nor inactive); the mix of calls is not that of the screen. Calls come from the whole dose curve; as a rule, active = well fitted inhibition curve with a large enough effect in the signal ratio, with a control signal flat (not every such curve was filed as active); inconclusive = small, poorly fitted or top-dose-only effect, or effect the other way, or a change in a side signal; inactive = no such curve, though single readings can be large or run the other way; the % refers to the signal ratio. A potency beside an inconclusive call is a rough fit, not a confirmed value. “Side channel” marks fits to a control or component signal instead of the main read-out.
# Molecular target: Muscleblind-like protein 1 (Homo sapiens) (UniProt Q9NR56)
# Assay: qHTS Assay for Inhibitors of MBNL1-poly(CUG) RNA binding
# Conditions: TR-FRET MBNL1-His/biotin-(CUG)12 binding, 665/545 ratio; activity change, negative = inhibition: at 57.5 µM (top of the series)
# Summary of the method: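 MBNL1-His + Biotin-(CUG)12, cpd titration 92 nM–58 uM; Tb anti-His Ab 0.055 ng/ul, SA-XL665 5 nM (final); 60 min RT; ratiometric 665/545 nm, Ex 340 nm; normalized to buffer and full-complex controls.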
# % is set by controls: 0 for no effect and ±100 for the full control effect; potency is the fitted concentration of half-maximal effect; tags give direction and shape of the fitted curve or compound fluorescence and quenching.
# Sequence of UniProt Q9NR56 (Q9NR56 whole entry, looked up): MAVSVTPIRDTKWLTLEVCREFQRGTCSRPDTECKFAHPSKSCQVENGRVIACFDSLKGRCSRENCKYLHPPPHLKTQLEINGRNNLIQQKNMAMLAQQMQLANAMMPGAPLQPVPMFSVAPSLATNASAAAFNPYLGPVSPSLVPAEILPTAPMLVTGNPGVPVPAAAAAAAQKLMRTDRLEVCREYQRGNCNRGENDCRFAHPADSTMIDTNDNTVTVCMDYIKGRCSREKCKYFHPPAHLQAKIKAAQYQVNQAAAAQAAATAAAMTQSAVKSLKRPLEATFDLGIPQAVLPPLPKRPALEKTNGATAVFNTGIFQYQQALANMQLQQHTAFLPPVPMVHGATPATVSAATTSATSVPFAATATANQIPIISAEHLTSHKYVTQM
Compound,Potency,"activity change, negative = inhibition"
Cc1ccc(S(=O)(=O)n2cnc3cc([N+](=O)[O-])ccc32)c(C)c1C,"inconclusive: 14.1 µM [quencher, side channel, partial curve]",–
Cc1ccc(NC(=O)c2cc(-n3cnnc3)ccc2Cl)c(C)c1,"inconclusive: 0.891 µM [fluorescent, side channel, partial curve]",–
CCN(CC)S(=O)(=O)c1ccc(NCC2COc3ccccc3O2)c([N+](=O)[O-])c1 (stereo not drawn),"inconclusive: 11.2 µM [quencher, side channel, partial curve]",–
CC(=O)c1sc(NC(=O)c2cc(=O)c3ccccc3o2)nc1C,"inconclusive: 3.16 µM [quencher, side channel, full curve, poor fit]",–
COc1ccc(/C=C/c2nnc(NC(=O)C(C)(C)C)s2)cc1,"inconclusive: 3.98 µM [quencher, side channel, full curve]",–
Cc1ccc(S(=O)(=O)N2CCCCC2)c2nsnc12,"inconclusive: 15.8 µM [quencher, side channel, partial curve]",–
C=CCc1ccc(OCCOc2ccc(/C=N/n3cnnc3)cc2OCC)c(OC)c1,–,inactive: 9.33%
Cc1ccc2nc3c(cc(C(=O)NCC4CCCO4)c(=N)n3CC3CCCO3)c(=O)n2c1 (stereo not drawn),"inconclusive: 2.82 µM [quencher, side channel, full curve]",–
O=C(COc1ccc(Br)cc1)N1CCOCC1,–,inactive: -6.36%
CC(C)(C)c1ccc(C(=O)Oc2ccc3c(c2)OCC3=O)cc1,–,inactive: -2.2%
O=C(N/N=C/c1ccc2c(c1)OCCO2)c1ccncc1,–,inactive: 1.45%
COc1ccccc1N(C)S(=O)(=O)c1ccc(Cl)c(C(=O)NNC(=O)c2ccccc2O)c1,"inconclusive: 39.8 µM [quencher, single point]",–
COc1ccc(NS(=O)(=O)c2ccc3ccccc3c2)c2ncccc12,–,inactive: 0.466%
Clc1ccccc1CN(Cc1ccco1)Cc1nnnn1C1CCCC1,"inconclusive: 63.1 µM [inhibitor, single point]",–
Cc1nn(C)c(C(=O)NC(=S)Nc2ccc([N+](=O)[O-])cc2)c1Cl,"inconclusive: 17.8 µM [quencher, side channel, partial curve]",–
CCOc1cccc(CNCCO)c1OCc1ccc(Cl)cc1Cl,"inconclusive: 0.1 µM [fluorescent, side channel, full curve]",–
CCOC(=O)N1CCN(S(=O)(=O)c2ccc3c4c(cccc24)C(=O)N3)CC1,"inconclusive: 15.8 µM [quencher, side channel, partial curve]",–
COc1cccc(C(=O)Nc2cc([N+](=O)[O-])ccc2N2CCN(C)CC2)c1,"inconclusive: 12.6 µM [quencher, side channel, partial curve]",–
Cc1ccc2nc(CSc3nnc(-c4ccco4)o3)cc(=O)n2c1,"inconclusive: 15.8 µM [quencher, partial curve]",–

Compound,Potency,"activity change, negative = inhibition"
CC1SC(c2ccccc2)N(CC(O)c2ccc([N+](=O)[O-])cc2)C1=O (stereo not drawn),"inconclusive: 15.8 µM [quencher, side channel, partial curve]",–
Cc1ccc(C(=O)COC(=O)c2c(C)cc(=O)oc2C)cc1[N+](=O)[O-],"inconclusive: 28.2 µM [quencher, side channel, partial curve]",–
Cc1cccc(NC(=O)Cn2nnc3sc4c(c3c2=O)CC(C)(C)OC4)c1,"inconclusive: 17.8 µM [quencher, single point]",–
CCOc1cc(Br)cc(C(c2c(C(=O)O)[nH]c3ccccc23)c2c(C(=O)O)[nH]c3ccccc23)c1O,–,inactive: 5.37%
CC(=O)Nc1ccc(NC(=O)CSc2ccc([N+](=O)[O-])cn2)cc1,"inconclusive: 14.1 µM [quencher, side channel, partial curve]",–
Nc1nonc1C(=O)NCCNc1ncccc1[N+](=O)[O-],"inconclusive: 28.2 µM [quencher, side channel, partial curve]",–
Cn1nc(NC(=O)C(F)(F)F)c2ncc(-c3ccc(Cl)cc3)nc21,"inconclusive: 11.2 µM [quencher, side channel, partial curve]",–
CCc1nc(Nc2cccc(O)c2)c2oc3ccccc3c2n1,–,inactive: -2.04%
O=C(c1ccccc1F)N1CCN(c2ccc([N+](=O)[O-])c3cccnc23)CC1,"inconclusive: 7.08 µM [quencher, side channel, partial curve]",–
CCC(C)(C)C(=O)Nc1ccc(OC)cc1[N+](=O)[O-],"inconclusive: 28.2 µM [quencher, side channel, partial curve]",–
COc1ccc(N2CCN(c3nc4c(C)cccn4c(=O)c3/C=C(\C#N)C(N)=O)CC2)cc1,"inconclusive: 3.98 µM [quencher, side channel, partial curve]",–
Cc1ccc2nsnc2c1NC(=O)c1ccc([N+](=O)[O-])o1,"inconclusive: 10 µM [quencher, side channel, partial curve]",–
CCCn1c(SCc2cc(=O)oc3ccc4ccccc4c23)n[nH]c1=O,"inconclusive: 15.8 µM [quencher, side channel, partial curve]",–
COc1cccc(OC)c1C(=O)Nc1nc2ccc([N+](=O)[O-])cc2s1,"inconclusive: 10 µM [quencher, side channel, partial curve]",–
CC(=O)N(C)c1ccc(NS(=O)(=O)c2cccc3nsnc23)cc1,"inconclusive: 14.1 µM [quencher, partial curve]",–
CCOC(=O)c1ccc(Nc2nc(C(=O)OCC)nc3ccccc23)cc1,"inconclusive: 2.51 µM [quencher, side channel, full curve]",–
Cc1ccc(/C=C2\CCn3c2nc2cc(C(=O)O)ccc2c3=O)c(C)c1,"inconclusive: 17.8 µM [quencher, side channel, partial curve]",–
CC(=O)c1cccc(OCC(O)CN2CCN(C(=O)c3ccco3)CC2)c1 (stereo not drawn),–,inactive: 0.761%
Cc1ccccc1C(=O)NNC(=S)NC(=O)c1ccc(Cl)cc1Cl,–,inactive: -1.55%

# Source: PubChem BioAssay AID2675 (National Center for Advancing Translational Sciences (NCATS), 2010)
